The text below walks through data of article PMC7272049 (PLoS ONE, 2020).

The experiment concerns the target T1, mB7-1 mIgG2a (mouse, UniProt Q00609 38-246).
T1 construct: mouse B7-1 (CD80); also called mB7-1 Ig-fusion; B7-1 Fc; source: small-scale purified recombinant protein
T1 sequence (looked up): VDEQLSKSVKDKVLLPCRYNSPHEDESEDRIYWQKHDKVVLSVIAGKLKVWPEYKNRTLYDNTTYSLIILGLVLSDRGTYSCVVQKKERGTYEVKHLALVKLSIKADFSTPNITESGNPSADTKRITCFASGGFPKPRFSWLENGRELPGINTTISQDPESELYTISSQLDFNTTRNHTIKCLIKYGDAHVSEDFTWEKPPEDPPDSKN
Description: bead-based flow cytometry competition; protein A beads saturated with mB7-1 mIgG2a; 20 nM mPD-L1 hIgG1 or mCD28 hIgG1 with increasing mIgG2a-fused competitor; anti-human Alexa 488. The note with it: both partners purified.

B1: mCTLA-4 mIgG2a (Fc fusion)
chain: not shown
notes: mouse CTLA-4; also called recombinant mCTLA-4 mIgG2a
Regarding B1, the binding result is given as “binds”.
